# Assay results reported in the antibiotic and cytotoxicity screens of Wong et al. (2023).
# The other results are listed elsewhere or left out.
# Tested on: HSkMC (human skeletal muscle cells)
# Test: cytotoxicity call (relative viability < 0.9)
# Conditions: 10 µM
row,SMILES,cytotoxicity call
1,C[C@H](CO)N1C[C@H](C)[C@H](CN(C)S(C)(=O)=O)Oc2ccc(NS(=O)(=O)c3ccc(F)cc3)cc2CC1=O,inactive
2,Nc1ncnc(N[C@H]2CCS(=O)(=O)C2)c1[N+](=O)[O-],inactive
3,C[C@@H]1CN([C@@H](C)CO)C(=O)c2cccc(NC(=O)C3CCOCC3)c2O[C@@H]1CN(C)S(=O)(=O)c1cn(C)cn1,inactive
4,COc1ccc(NC(=O)Nc2ccc3c(c2)C(=O)N([C@@H](C)CO)C[C@H](C)[C@H](CN(C)S(=O)(=O)c2cccs2)OCCCC[C@@H](C)O3)cc1,inactive
5,Cc1noc(C)c1NC(=O)Nc1ccc2c(c1)C(=O)N([C@@H](C)CO)C[C@@H](C)[C@@H](CN(C)S(=O)(=O)c1ccc(Cl)cc1)OCCCC[C@@H](C)O2,inactive
6,COC(=O)[C@@H]1[C@@H](c2ccc(OC)cc2)[C@H](C(=O)OC)S(=O)(=O)CS1(=O)=O,inactive
7,CCCCCCO[C@H](C)c1c(c/2[nH]c1/C=C/1\N=C(/C=C/3\NC4=C(CC(=O)C4=C3C)C3=N/C(=C2)[C@@H](C)[C@@H]3CCC(=O)O)C(=C1C)CC)C,active
8,CNC(=O)CN1CCO[C@H]2CN(C(=O)c3cnccn3)C[C@@H]21,inactive
9,CN1C(=O)N(C)[C@H]2NC(=O)N[C@@H]21,inactive
10,CC(C)N1[C@@H]2OC(C3O[C@H]4[C@H](O3)N(C(C)C)S(=O)(=O)N4C(C)C)O[C@@H]2N(C(C)C)S1(=O)=O (some centres undefined),inactive
11,COc1ccc(NC(=O)Nc2cccc3c2O[C@@H](CN(C)Cc2ccc(C(F)(F)F)cc2)[C@H](C)CN([C@@H](C)CO)C3=O)cc1,inactive
12,CCCC(=O)Nc1ccc2c(c1)C(=O)N(C)C[C@@H](OC)[C@H](C)CN(Cc1cc(-c3ccccc3)on1)[C@H](C)CO2,inactive
13,COCC(=O)Nc1ccc2c(c1)C(=O)N(C)C[C@@H](OC)[C@H](C)CN(Cc1ccccc1C(=O)O)[C@H](C)CO2,inactive
14,CN(/N=C/c1ccncc1)C1=NCCN1,inactive

# Tested on: HepG2
# Test: cytotoxicity call (relative viability < 0.9)
# Conditions: 10 µM
row,SMILES,cytotoxicity call
1,C=CCNC(=O)[C@H]1[C@@H]2C(=O)O[C@@H](c3ccccc3)[C@@H](c3ccccc3)N2[C@@H](c2ccc(O)cc2)[C@]12C(=O)Nc1ccc(C#Cc3ccc(OC)cc3)cc12,inactive
2,CCOC(=O)CCCCCC(=O)Nc1ccc2c(c1)C(=O)N([C@@H](C)CO)C[C@@H](C)[C@H](CN(C)C(=O)Nc1ccccc1)OCCCC[C@H](C)O2,inactive
3,CN1C(=O)c2cc(NC(=O)c3cnccn3)ccc2OC[C@@H]2O[C@H](CC(=O)N[C@H]3CCN(Cc4ccccc4)C3)CC[C@@H]21,inactive
4,C[C@@H]1CCCCO[C@H](CN(C)C(=O)Nc2ccc(F)cc2)[C@H](C)CN([C@@H](C)CO)C(=O)c2cc(NC(=O)CCCN(C)C)ccc2O1,inactive
5,CC(C)(C)[C@H]1COC(=O)[C@@H](NC(=O)OCC2c3ccccc3-c3ccccc32)CC=CC[C@@H](CC(=O)N[C@H](CO)Cc2ccccc2)C(=O)N1,inactive
6,C[C@H]1CN([C@@H](C)CO)C(=O)Cc2cc(NC(=O)CCN3CCOCC3)ccc2O[C@@H]1CN(C)C(=O)Nc1ccc(F)cc1,inactive
7,C[C@@H]1CCCCO[C@H](CN(C)Cc2ccc(C(=O)O)cc2)[C@H](C)CN([C@H](C)CO)C(=O)c2cc(NC(=O)Nc3ccc4c(c3)OCO4)ccc2O1,inactive
8,C[C@H](CO)N1C[C@H](C)[C@H](CN(C)C(=O)Nc2ccc(N3CCCCC3)cc2)OCc2cnnn2CCCC1=O,inactive
9,C[C@@H]1CCCCO[C@H](CN(C)C(=O)Nc2ccc3c(c2)OCO3)[C@H](C)CN([C@@H](C)CO)C(=O)c2cc(NC(=O)Cc3ccccc3)ccc2O1,inactive
10,CN1C(=O)c2cc(NC(=O)Cc3cccs3)ccc2OC[C@@H]2O[C@@H](CC(=O)NCCc3ccncc3)CC[C@H]21,inactive
11,C=CCOC(=O)[C@@H]1[C@H]2C(=O)O[C@H](c3ccccc3)[C@H](c3ccccc3)N2[C@H](c2ccc(OCCOC(=O)[C@@H]3C[C@@H]4C(=O)NCC(=O)N4[C@@H]3c3ccc(O)cc3)cc2)[C@@]12C(=O)Nc1ccc(I)cc12,inactive
12,COc1ccc(S(=O)(=O)Nc2ccc3c(c2)CC(=O)N([C@H](C)CO)C[C@@H](C)[C@@H](CN(C)S(=O)(=O)c2ccc(C)cc2)O3)cc1,inactive
13,O=C1CNC(=S)N1c1ccccc1,inactive
14,CO[C@H]1CN(C)C(=O)c2ccc(NC(=O)c3ccc(F)cc3)cc2OC[C@H](C)N(C(=O)CN(C)C)C[C@@H]1C,inactive
15,Cc1ccc(S(=O)(=O)Nc2cccc3c2O[C@@H](CN(C)S(=O)(=O)c2ccccc2)[C@H](C)CN([C@H](C)CO)C3=O)cc1,inactive
16,C[C@@H]1CCCCO[C@H](CN(C)C(=O)C2CCCCC2)[C@@H](C)CN([C@H](C)CO)C(=O)c2cc(NC(=O)Nc3ccc4c(c3)OCO4)ccc2O1,inactive
17,C[C@@H]1O[C@@H](O[C@@H]2[C@@H](O)[C@H](C)O[C@@H](OC[C@H]3O[C@@H](Oc4c(-c5ccc(O)c(O)c5)oc5cc(O)cc(O)c5c4=O)[C@@H](O)[C@@H](O)[C@@H]3O)[C@@H]2O)[C@H](O)[C@H](O)[C@H]1O,inactive
18,CC(Oc1c(Cl)cccc1Cl)C1=NCCN1.Cl (centres undefined),inactive
19,C[C@@H]1CN([C@@H](C)CO)C(=O)c2cc(NS(=O)(=O)c3cn(C)cn3)ccc2O[C@@H](C)CCCCO[C@@H]1CN(C)C(=O)Nc1cccc2ccccc12,active
20,N#CCSc1ncnc2c1cnn2CCO,inactive

row,SMILES,cytotoxicity call
1,COc1ccc(S(=O)(=O)Nc2ccc3c(c2)C(=O)N([C@H](C)CO)C[C@H](C)[C@@H](CN(C)C(=O)NC(C)C)O3)cc1,inactive
2,COc1cccc(S(=O)(=O)N(C)C[C@H]2Oc3ncc(-c4cccc(C(=O)N(C)C)c4)cc3C(=O)N([C@H](C)CO)C[C@H]2C)c1,inactive
3,O=C(C[C@H]1CC[C@H]2[C@@H](COC[C@H](O)CN2S(=O)(=O)c2ccc(Oc3ccccc3)cc2)O1)NCCN1CCCCC1,inactive
4,OC[C@@H]1CC[C@@H]2O[C@H](CCc3ccc(C#Cc4ccccc4)cc3)[C@@H](n3cc(-c4ccccc4)nn3)C[C@@H]2O1,active
5,C[C@@H]1O[C@@H](O[C@@H]2[C@@H](O)[C@H](OCCc3ccc(O)c(O)c3)O[C@H](CO)[C@H]2O)[C@H](O)[C@H](O)[C@H]1O,inactive
6,C[C@@H]1CCCCO[C@H](CN(C)C(=O)CCC(F)(F)F)[C@H](C)CN([C@@H](C)CO)C(=O)c2cc(NC(=O)Nc3ccc4c(c3)OCO4)ccc2O1,inactive
7,C[C@H](CO)N1C[C@H](C)[C@H](CN(C)S(C)(=O)=O)Oc2ccc(NS(=O)(=O)c3ccc(F)cc3)cc2CC1=O,inactive
8,Nc1ncnc(N[C@H]2CCS(=O)(=O)C2)c1[N+](=O)[O-],inactive
9,C[C@@H]1CN([C@@H](C)CO)C(=O)c2cccc(NC(=O)C3CCOCC3)c2O[C@@H]1CN(C)S(=O)(=O)c1cn(C)cn1,inactive
10,COc1ccc(NC(=O)Nc2ccc3c(c2)C(=O)N([C@@H](C)CO)C[C@H](C)[C@H](CN(C)S(=O)(=O)c2cccs2)OCCCC[C@@H](C)O3)cc1,inactive
11,Cc1noc(C)c1NC(=O)Nc1ccc2c(c1)C(=O)N([C@@H](C)CO)C[C@@H](C)[C@@H](CN(C)S(=O)(=O)c1ccc(Cl)cc1)OCCCC[C@@H](C)O2,inactive
12,COC(=O)[C@@H]1[C@@H](c2ccc(OC)cc2)[C@H](C(=O)OC)S(=O)(=O)CS1(=O)=O,active
13,CCCCCCO[C@H](C)c1c(c/2[nH]c1/C=C/1\N=C(/C=C/3\NC4=C(CC(=O)C4=C3C)C3=N/C(=C2)[C@@H](C)[C@@H]3CCC(=O)O)C(=C1C)CC)C,active
14,CNC(=O)CN1CCO[C@H]2CN(C(=O)c3cnccn3)C[C@@H]21,inactive
15,CN1C(=O)N(C)[C@H]2NC(=O)N[C@@H]21,inactive
16,CC(C)N1[C@@H]2OC(C3O[C@H]4[C@H](O3)N(C(C)C)S(=O)(=O)N4C(C)C)O[C@@H]2N(C(C)C)S1(=O)=O (some centres undefined),inactive
17,COc1ccc(NC(=O)Nc2cccc3c2O[C@@H](CN(C)Cc2ccc(C(F)(F)F)cc2)[C@H](C)CN([C@@H](C)CO)C3=O)cc1,inactive
18,CCCC(=O)Nc1ccc2c(c1)C(=O)N(C)C[C@@H](OC)[C@H](C)CN(Cc1cc(-c3ccccc3)on1)[C@H](C)CO2,inactive
19,COCC(=O)Nc1ccc2c(c1)C(=O)N(C)C[C@@H](OC)[C@H](C)CN(Cc1ccccc1C(=O)O)[C@H](C)CO2,inactive
20,CN(/N=C/c1ccncc1)C1=NCCN1,inactive
